Measured values: US8685403 (University of California, dated 2014)

Target: T1, recombinant soluble integrin αvβ3 (UniProt P06756 31-992; P05106 27-718)
T1 construct: also called soluble αvβ3; purified soluble αvβ3
Assay: SPR, soluble αvβ3 immobilized on a CM5 chip, IGF1 0.125-8 µM in HBS-P with 1 mM Mn2+, 1:1 binding with drifting baseline

T1 sequence (P06756 31-992, chain 1 of 2): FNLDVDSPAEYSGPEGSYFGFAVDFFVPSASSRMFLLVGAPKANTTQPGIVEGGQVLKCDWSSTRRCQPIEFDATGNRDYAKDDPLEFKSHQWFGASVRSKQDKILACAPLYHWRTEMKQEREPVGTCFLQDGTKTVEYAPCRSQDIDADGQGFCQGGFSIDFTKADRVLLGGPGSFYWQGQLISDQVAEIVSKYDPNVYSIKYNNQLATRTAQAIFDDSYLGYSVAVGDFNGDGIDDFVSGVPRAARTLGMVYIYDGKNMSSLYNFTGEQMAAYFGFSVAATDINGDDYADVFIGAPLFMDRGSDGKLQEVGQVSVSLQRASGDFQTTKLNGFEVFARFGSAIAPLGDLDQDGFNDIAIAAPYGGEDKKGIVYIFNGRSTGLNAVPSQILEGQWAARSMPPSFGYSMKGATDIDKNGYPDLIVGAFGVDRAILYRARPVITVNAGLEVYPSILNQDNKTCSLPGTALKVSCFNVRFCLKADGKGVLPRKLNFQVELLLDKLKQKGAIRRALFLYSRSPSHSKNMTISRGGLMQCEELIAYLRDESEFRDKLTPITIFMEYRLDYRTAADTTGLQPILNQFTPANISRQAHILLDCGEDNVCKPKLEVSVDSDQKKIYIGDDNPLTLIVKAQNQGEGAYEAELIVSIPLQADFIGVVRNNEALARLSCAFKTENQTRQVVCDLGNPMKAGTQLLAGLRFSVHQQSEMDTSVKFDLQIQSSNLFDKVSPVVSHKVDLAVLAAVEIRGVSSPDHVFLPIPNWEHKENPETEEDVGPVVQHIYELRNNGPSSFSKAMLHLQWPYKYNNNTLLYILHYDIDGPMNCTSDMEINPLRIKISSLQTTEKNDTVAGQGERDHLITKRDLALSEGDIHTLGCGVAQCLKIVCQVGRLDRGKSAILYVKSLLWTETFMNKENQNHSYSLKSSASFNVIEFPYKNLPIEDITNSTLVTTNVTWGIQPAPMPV
T1 sequence (P05106 27-718, chain 2 of 2, further chain): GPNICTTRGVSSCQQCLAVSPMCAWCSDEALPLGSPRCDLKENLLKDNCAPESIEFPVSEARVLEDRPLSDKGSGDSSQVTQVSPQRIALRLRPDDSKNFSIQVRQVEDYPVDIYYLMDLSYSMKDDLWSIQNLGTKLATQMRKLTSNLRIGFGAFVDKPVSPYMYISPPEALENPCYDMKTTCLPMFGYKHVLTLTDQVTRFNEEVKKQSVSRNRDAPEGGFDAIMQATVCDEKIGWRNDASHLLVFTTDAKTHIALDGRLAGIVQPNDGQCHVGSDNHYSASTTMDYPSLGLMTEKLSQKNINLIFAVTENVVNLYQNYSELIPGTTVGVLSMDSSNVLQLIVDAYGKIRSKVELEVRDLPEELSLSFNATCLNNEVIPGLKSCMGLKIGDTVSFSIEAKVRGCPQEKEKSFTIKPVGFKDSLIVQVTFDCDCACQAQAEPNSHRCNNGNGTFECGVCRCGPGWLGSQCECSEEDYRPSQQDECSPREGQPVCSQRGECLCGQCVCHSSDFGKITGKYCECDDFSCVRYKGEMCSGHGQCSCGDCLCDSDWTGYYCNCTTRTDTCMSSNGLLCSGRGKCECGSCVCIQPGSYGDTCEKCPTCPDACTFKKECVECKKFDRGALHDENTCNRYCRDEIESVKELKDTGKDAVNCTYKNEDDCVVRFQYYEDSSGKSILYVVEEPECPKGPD

B1: wild type IGF-1 with a 6His-tag at the C-terminus (ligand)
chain: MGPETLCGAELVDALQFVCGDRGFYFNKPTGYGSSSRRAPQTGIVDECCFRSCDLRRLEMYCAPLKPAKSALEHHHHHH
modifications: biotinylated when used as the labelled ligand in the IGF1R competition assay (site not stated)
notes: also called wt IGF1; WT IGF-1
What does the source list for B1?
Kd: 506 nM; koff: 0.00169 s⁻¹; kon: 3330 M⁻¹ s⁻¹
